# Values joined by “and” are separate entries in the source; they are usually repeats but may differ in a detail not shown here. Equal entries are not always repeated. The inconclusive results got no clear call from the source; some entries with a clear call stand among them for comparison. Potencies of inconclusive entries are doubtful fits and often do not repeat. Some structures have more than one record in an assay (separate samples or runs), and their calls can disagree. Active and inactive are the calls of the source. Unless noted, calls come from the whole dose curve.
# Assay: qHTS assay to identify small molecule agonists of the endoplasmic reticulum stress response signaling pathway (AID 1159516; active = well fitted activation curve with a large enough effect in the signal ratio in the repeat runs, not every such curve was filed as active; inconclusive = weak or mixed curves, or effect the other way; the % refers to the signal ratio)
# Conditions: ESRE-bla HeLa, ER stress beta-lactamase reporter, 5 h; activation: at 61 µM (top of the series) unless noted
# Summary of the method: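 Reporter HeLa cells (ESRE-beta-lactamase) underwent 5 hr compound incubation at 37 C and 5% CO2 in quantitative HTS format. Detection followed 2 hr of FRET substrate loading at room temperature.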
# % is set by controls: 0 for no effect and ±100 for the full control effect; potency is the fitted concentration of half-maximal effect; tags give direction and shape of the fitted curve or compound fluorescence and quenching.
SMILES,Potency,activation
C=CC(=O)OCC(CO)(COC(=O)C=C)COC(=O)C=C,"inconclusive: 15.5 µM [cytotoxic, full curve] and inconclusive: 49 µM",–
CCCCC(CC)COC(C)=O (stereo not given),"inconclusive: 9.66 µM [rising, full curve, poor fit]",–
Oc1ccc(Cl)cc1Sc1cc(Cl)ccc1O,"inconclusive: 48.9 µM [falling, partial curve] and inconclusive: 19 µM [falling, partial curve]",–
CCCCCCCCCCCC[N+](C)(C)Cc1ccccc1,"inconclusive: 60.5 µM [cytotoxic, single point] and inconclusive: 47.4 µM [cytotoxic, partial curve]",inconclusive: -7.35%
CC/C(=C(/CC)c1ccc(O)cc1)c1ccc(O)cc1,inconclusive: 54.5 µM [single point],inconclusive: -13.6%
CCCCC(CC)COP(=O)(O)OCC(CC)CCCC (stereo not given),–,inconclusive: -14%
CCCCCCC(C)O (stereo not given),inactive,–
C=CC(C)(C)C,inactive,–
Nc1c2ccccc2nc2ccccc12,"inconclusive: 43.1 µM [fluorescent, partial curve] and inconclusive: 19 µM [fluorescent, partial curve]",–
Nc1nc(=S)c2[nH]cnc2[nH]1,"inconclusive: 95.2 nM [activator, full curve, poor fit] and inconclusive: 77.6 nM [activator, full curve] and inconclusive: 95.2 nM [activator, full curve]",–
COC(=O)c1ccc(C)cc1,–,inconclusive: 0.177% [at 78.8 µM]
O=Cc1ccccc1C=O,"inconclusive: 4.9 µM [rising, full curve]",–
C=C(C)C(=O)OCCCCCC,"inconclusive: 0.275 µM [rising, full curve, poor fit]",–
CC(=O)c1ccccc1,inactive,–
CCCCC(CC)C(=O)O (stereo not given),inactive,–
CCCC1O[C@@H]2C[C@H]3[C@@H]4CCC5=CC(=O)C=C[C@]5(C)[C@H]4[C@@H](O)C[C@]3(C)[C@]2(C(=O)CO)O1 (stereo not given in full),"inconclusive: 34.7 µM [rising, partial curve, poor fit]",–
C=CCc1ccc(OC)c(OC)c1,inactive,–
COC(=O)[C@H]1[C@H]2C[C@@H]3c4[nH]c5cc(OC)ccc5c4CCN3C[C@H]2C[C@@H](OC(=O)c2cc(OC)c(OC)c(OC)c2)[C@@H]1OC,"inconclusive: 50.4 µM [fluorescent, single point]",–
CN(C)c1ccc(C(=C2C=CC(=[N+](C)C)C=C2)c2ccc(N(C)C)cc2)cc1,"inconclusive: 38.7 µM [cytotoxic, partial curve] and inconclusive: 61.6 µM [cytotoxic, single point] and inconclusive: 26.8 µM [cytotoxic, single point]",–
c1c[nH]cn1,inactive,–
c1ccc2c(c1)ccc1cc3c(ccc4ccccc43)cc12,"active: 7.67 µM and inconclusive: 12.2 µM [activator, partial curve]",–
C=C[C@@]1(C)CC(=O)[C@]2(O)[C@@]3(C)[C@@H](O)CCC(C)(C)[C@@H]3[C@H](O)[C@H](OC(C)=O)[C@@]2(C)O1,–,inconclusive: 9.18%

# Assay: qHTS assay to identify small molecule agonists of the endoplasmic reticulum stress response signaling pathway - cell viability counter screen (AID 1159517); note: nearly all actives have a fitted effect of over 50% in size
# Conditions: ESRE-bla HeLa viability, CellTiter-Glo luminescence, 5 h; series mostly up to 61 µM
# Summary of the method: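 HeLa cells carrying an ESRE-driven beta-lactamase reporter receive compound for 5 hr at 37 C. Cell viability is then gauged with CellTiter-Glo by luminescence, 30 min at room temperature.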
row,SMILES,Potency
1,C=CC(=O)OCC(CO)(COC(=O)C=C)COC(=O)C=C,"inconclusive: 2.2 nM [cytotoxic, full curve, poor fit] and active: 21.9 µM"
2,Oc1ccc(Cl)cc1Sc1cc(Cl)ccc1O,"inconclusive: 54.8 µM [cytotoxic] and inconclusive: 30.1 µM [cytotoxic, single point]"
3,CCCCCCCCCCCC[N+](C)(C)Cc1ccccc1,active: 17 µM and active: 21.2 µM and active: 26.8 µM
4,CC/C(=C(/CC)c1ccc(O)cc1)c1ccc(O)cc1,"inconclusive: 48.6 µM [cytotoxic, partial curve, poor fit] and active: 54.9 µM"
5,CCCCC(CC)COP(=O)(O)OCC(CC)CCCC (stereo not given),active: 55 µM and active: 49 µM
6,CCCCCCC(C)O (stereo not given),"inconclusive: 0.49 µM [cytotoxic, single point]"
7,Nc1c2ccccc2nc2ccccc12,"inconclusive: 34.2 µM [cytotoxic, partial curve, poor fit] and inactive"
8,Nc1nc(=S)c2[nH]cnc2[nH]1,"inconclusive: 0.19 µM [cytotoxic, single point]"
9,O=Cc1ccccc1C=O,"inconclusive: 8.71 µM [cytotoxic, full curve]"
10,C[Si](C)(C)Cl,"inconclusive: 15 µM [rising, partial curve, poor fit]"
11,CCCC1O[C@@H]2C[C@H]3[C@@H]4CCC5=CC(=O)C=C[C@]5(C)[C@H]4[C@@H](O)C[C@]3(C)[C@]2(C(=O)CO)O1 (stereo not given in full),inactive
12,CCCCCCCCCCCCO,"inconclusive: 2.16 µM [cytotoxic, single point]"
13,CCOC(N)=O,"inconclusive: 0.0195 µM [rising, full curve, poor fit]"
14,CN(C)c1ccc(C(=C2C=CC(=[N+](C)C)C=C2)c2ccc(N(C)C)cc2)cc1,"inconclusive: 12.2 µM [cytotoxic, single point] and active: 12.3 µM and active: 9.52 µM"
15,C=C[C@@]1(C)CC(=O)[C@]2(O)[C@@]3(C)[C@@H](O)CCC(C)(C)[C@@H]3[C@H](O)[C@H](OC(C)=O)[C@@]2(C)O1,active: 21.9 µM and active: 21.3 µM
16,OCC1CCCO1 (stereo not given),"inconclusive: 27.5 µM [rising, partial curve, poor fit]"

# From PubChem BioAssay (Tox21)
